# Assay results taken from PubChem BioAssay AID588342 (National Center for Advancing Translational Sciences (NCATS), 2011).
# Values joined by “and” are separate entries in the source; they are usually repeats but may differ in a detail not shown here. Identical values can stand only once. Hit rate of the full screen: of about 360,000 compounds, about 25,000 (6.9%) were called active. The inconclusive results got no clear call from the source; some entries with a clear call stand among them for comparison. The call rests on the fitted dose curve; in most records, active means well fitted inhibition curve with a large enough effect; inconclusive means small, poorly fitted or top-dose-only effect; inactive means flat fitted curve, though single readings scatter. Potencies of inconclusive entries are doubtful fits and often do not repeat.
# Target: Luciferin 4-monooxygenase (Photinus pyralis) (UniProt P08659)
# Sequence of UniProt P08659 (P08659 whole entry, looked up): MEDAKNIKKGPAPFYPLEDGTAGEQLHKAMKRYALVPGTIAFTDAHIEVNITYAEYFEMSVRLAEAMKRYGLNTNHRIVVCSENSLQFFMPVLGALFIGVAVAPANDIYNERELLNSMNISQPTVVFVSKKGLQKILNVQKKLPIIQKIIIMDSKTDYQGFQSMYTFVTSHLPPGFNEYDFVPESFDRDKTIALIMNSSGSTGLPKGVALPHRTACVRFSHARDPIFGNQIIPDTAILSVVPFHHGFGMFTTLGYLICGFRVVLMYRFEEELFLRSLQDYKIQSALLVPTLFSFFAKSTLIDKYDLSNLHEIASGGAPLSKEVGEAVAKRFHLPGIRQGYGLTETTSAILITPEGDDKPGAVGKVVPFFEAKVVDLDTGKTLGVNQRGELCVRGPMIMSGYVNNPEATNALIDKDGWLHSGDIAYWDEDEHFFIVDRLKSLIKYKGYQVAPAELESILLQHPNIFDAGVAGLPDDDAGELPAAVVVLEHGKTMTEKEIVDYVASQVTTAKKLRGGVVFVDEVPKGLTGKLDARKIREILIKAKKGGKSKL
# Assay: qHTS profiling assay for firefly luciferase inhibitor/activator using purifed enzyme and Km concentrations of substrates (counterscreen for miR-21 project); further: nearly all actives have a fitted effect of over 55% in size;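 on activity change, negative = inhibition: plate controls were vehicle for no effect and reference inhibitor for full effect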
# Conditions: purified FLuc, luminescence inhibition; series mostly up to 57.5 µM; activity change, negative = inhibition: at the top concentration
# Method in brief: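 Purified P. pyralis luciferase, 10 nM final, with Km-level 10 uM D-luciferin and 10 uM ATP in 50 mM Tris acetate pH 7.5, 10 mM Mg acetate, 0.01% Tween-20, 0.05% BSA; 6-point qHTS titration about 60 µM downward; luminescence read.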
# Potency means the concentration at half of the fitted maximal effect; tags describe the fitted curve by direction and shape.
SMILES,Potency,"activity change, negative = inhibition"
CCOC(=O)c1c(C)oc2c1c(C=NCC1CCCO1)c(O)c1ccccc12 (stereo not drawn),active: 9.53 µM,
COc1cccc(-c2cc3onc(-c4ccccc4)c3c(=O)n2C)c1,active: 0.849 µM,
O=C(CCN1C(=O)/C(=C/c2ccccc2Cl)SC1=S)NNC(=O)c1cccnc1,"inconclusive: 23.9 µM [inhibitor, partial curve]",
COc1ccc(NC(=O)c2ccc3c(SCC(=O)O)c4c(nc3c2)CCCC4)c(OC)c1,"inconclusive: 21.3 µM [inhibitor, single point] and inconclusive: 26.9 µM [inhibitor, partial curve, poor fit]",
CCc1ccc(NC(=O)CSc2ccc(-c3ccccn3)nn2)cc1,inactive,
O=C(NCCCN1CCN(c2ccc(F)cc2)CC1)c1cnn(-c2ccc(F)cc2)c1-n1cccc1,,inactive: -7.93%
CCOC(=O)c1ccccc1NC(=O)CSc1nc2ccccc2c(=O)[nH]1,"inconclusive: 26.9 µM [inhibitor, partial curve, poor fit]",
CCOC(=O)C(CSCC(=O)c1ccc(Cl)cc1Cl)NC(=O)OC(C)(C)C (stereo not drawn),"inconclusive: 26.9 µM [inhibitor, partial curve, poor fit]",
CC1CCc2sc(C(=O)N(C)CC(=O)Nc3cccc(F)c3)cc2C1 (stereo not drawn),"inconclusive: 26.9 µM [inhibitor, partial curve, poor fit]",
COc1ccc(/C=C/C(=O)Oc2cccc(/C=N/NC(=O)Cc3ccc(Br)cc3)c2)cc1,"inconclusive: 12 µM [inhibitor, partial curve]",
CC(=O)Nc1ccc(NC(=O)CSc2nccn2Cc2ccco2)cc1,"inconclusive: 16.9 µM [inhibitor, partial curve, poor fit]",
CCOc1ccccc1NC(=O)c1cc(C(=O)c2cc(Br)ccc2O)coc1=N,"inconclusive: 21.3 µM [inhibitor, partial curve]",
Cc1cccc(N2CCN(C(=O)COc3cc4oc(=O)cc(C)c4cc3Cl)CC2)c1C,,inactive: -1.01%
COc1cccc(C(=O)Nc2cccc(-c3cn4ccsc4n3)c2)c1OC,active: 15.1 µM,
CC(Oc1ccc([N+](=O)[O-])cc1)C(=O)NCCCN1CCOCC1 (stereo not drawn),,inactive: -2.22%
Cc1ccccc1-c1noc(-c2cccnc2N2CCN(c3ccccc3)CC2)n1,"inconclusive: 37.9 µM [inhibitor, partial curve, poor fit]",
CCOC(=O)c1ccc(NC(=O)CCn2c(=O)c3cccn3c3cccnc32)cc1,,inactive: 1.11%
O=c1cnn(-c2ccccc2)c(-c2ccccc2)c1,active: 10.7 µM,
COc1cc(/C=N/N=C2/NC(=O)C(Cc3ccc(F)cc3)S2)ccc1O (stereo not drawn),active: 2.69 µM,
CCc1cccc(NS(=O)(=O)c2ccc(-n3cccn3)cc2)c1,"inconclusive: 26.9 µM [inhibitor, partial curve, poor fit]",
Cc1cccc(C)c1OC(=O)CSc1nnc(-c2ccccc2)o1,,inactive: 2.68%
COc1ccc(/C=C/c2nc3ccccc3c(=O)n2-c2cccc(C(=O)O)c2)cc1,"inconclusive: 16.9 µM [inhibitor, partial curve]",

SMILES,Potency,"activity change, negative = inhibition"
Cc1ccc(NC(=O)c2ccc(F)cc2F)cc1NS(C)(=O)=O,"inconclusive: 37.9 µM [inhibitor, partial curve, poor fit]",
CCc1nc(CN2CCN(c3ccc(C(F)(F)F)cn3)CC2)c(C)[nH]1,,inactive: -1.47%
C=CCn1c(=O)c2ccccc2n2c(SCc3nc4ccccc4s3)nnc12,active: 12 µM,
Nc1ccccc1-n1c(=O)n(Cc2ccccc2F)c(=O)c2[nH]cnc21,,inactive: -1.16%
CC(C)(CNC(=O)c1sc2cc(Cl)ccc2c1Cl)N1CCOCC1,"inconclusive: 15.1 µM [inhibitor, partial curve]",
CCCOc1ccc(-c2nn(-c3ccccc3)cc2C2NC(=O)NC(C)=C2C(=O)OC)cc1 (stereo not drawn),"inconclusive: 21.3 µM [inhibitor, partial curve, poor fit]",
O=C(COC(=O)CCCN1C(=O)c2cccc3cccc(c23)C1=O)Nc1ccc(Cl)cc1,"inconclusive: 21.3 µM [inhibitor, single point]",
Cc1cccc(N=C2NC(=O)/C(=C/c3cccs3)S2)c1,"inconclusive: 8.49 µM [inhibitor, partial curve, poor fit]",
CN(C)c1ccc(NC(=O)Nc2cccc3ccccc23)cc1,active: 2.69 µM,
O=c1[nH]c2cc3c(cc2cc1CN(Cc1ccccc1)Cc1nnnn1Cc1ccco1)OCCO3,"inconclusive: 21.3 µM [inhibitor, partial curve, poor fit]",
COc1ccc(N2CCN(C(=O)C3Cc4ccccc4CN3C(=O)c3ccccc3)CC2)cc1 (stereo not drawn),"inconclusive: 37.9 µM [inhibitor, partial curve, poor fit]",
COc1ccc(OC)c(Cc2nnc(CCC(=O)NCc3ccc(C)s3)o2)c1,,inactive: -7.92%
CCOC(=O)CSc1cc(=O)n(C)c2cc(Cl)ccc12,"inconclusive: 23.9 µM [inhibitor, partial curve, poor fit]",
CCOc1ccc(C2c3[nH]c4ccccc4c3CCN2Cc2cccn2-c2ncccn2)cc1 (stereo not drawn),"inconclusive: 26.9 µM [inhibitor, partial curve, poor fit]",
COc1cccc(C(=O)Nc2cccc(NC(=O)c3ccc(Cl)cc3Cl)c2)c1,active: 7.57 µM,
Cc1[nH]c2ccccc2c1C(=O)CSc1nc2ccccc2[nH]1,"inconclusive: 23.9 µM [inhibitor, single point]",
O=[N+]([O-])c1cc(Br)cc(C=Nc2ccc3c(c2)OCO3)c1O,"inconclusive: 13.5 µM [inhibitor, partial curve, poor fit]",
CCCSc1nsc(SCCC)c1C(N)=O,,inactive: 0.605%
O=C(O)CC(NC(=O)Nc1ccccc1)c1ccc(OC2CCCC2)cc1 (stereo not drawn),"inconclusive: 23.9 µM [inhibitor, partial curve, poor fit]",
COc1ccc(-c2nc(CCNC(=O)c3cccs3)cs2)cc1,active: 13.5 µM and active: 26.9 µM,
COC(=O)c1c(-c2ccccc2)csc1NC(=O)c1ccco1,active: 5.36 µM,
